Source: the RNAGym collection of RNA variant scans (doi:10.1093/nar/gkz1192)
The source gives no read counts; variants with many changes may rest on few reads.

B1: CPEB3 Ribozyme (parent)
chain: UAACAGGGGGCCACAGCAGAAGCGUUCACGUCGCAGCCCCUGUCAGAUUCUGGUGAAUCUGCGAAUUCUGCUGUAUAUCUC

Variants of: B1
Experiment: self-cleavage, relative activity (ratio to wild type); higher = more cleavage; in vitro, sequencing
How it was run: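 For each CPEB3 ribozyme variant, relative activity is its cleaved/total read fraction divided by the unmutated ribozyme's. Barcoded error-prone PCR libraries were transcribed by T7 RNA polymerase (5 hours, 37°C) and held in DNase I for 15 min before an EDTA stop, with cleavage occurring throughout. Template-switching reverse transcription and Illumina sequencing were used to read the RNAs. A 5-read minimum applied, and results are the mean of three batches.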

Row | Variant | self-cleavage
1 | U43C G53C U54C | 0.37
2 | U43C G53U U69A | 0.32
3 | U43C G55A U76A | 0.21
4 | U43C G61A A75G | 0.15
5 | U43C G63A U72C U78C | 0.77
6 | U43C G70U U74A | 0.1
7 | U43C U48A G73A | 0.35
8 | U43C U48C C62A | 0.58
9 | U43C U48C G55A A56G U67C | 0.16
10 | U43C U48C U51C | 0.22
11 | U43C U48C U67C | 0.36
12 | U43C U48C U69A G73C U74A | 0.2
13 | U43C U49C G70A U80C | 0.24
14 | U43C U49C G70C | 0.14
15 | U43C U49C U60C | 0.09
16 | U43C U49C U69C | 0.15
17 | U43C U49C U69C A75U | 0.11
18 | U43C U49C U74C | 0.22
19 | U43C U49G A57G | 0.15
20 | U43C U49G U76A | 0.11
21 | U43C U51A A56G | 0.26
22 | U43C U51A A56U U72A A75U | 0.39
23 | U43C U51A A65G U72C U76C | 0.32
24 | U43C U51C A64G U67A | 0.43

Row | Variant | self-cleavage
25 | U43C U51C U54A A56U U67C U72A | 0.18
26 | U43C U51G A64G A65G U76C | 0.15
27 | U43C U54A A57G | 0.37
28 | U43C U54A A64U | 0.2
29 | U43C U54C A56G U78C | 0.07
30 | U43C U54C A57G | 0.18
31 | U43C U54C A64G | 0.15
32 | U43C U54C A77G | 0.23
33 | U43C U54C C62U A64G U78C | 0.11
34 | U43C U54C U58C C71U U72C | 0.21
35 | U43C U54C U60A U78C | 0.37
36 | U43C U54C U72A U80C | 0.73
37 | U43C U54C U78A | 0.35
38 | U43C U54G C62U | 0.26
39 | U43C U54G G73A | 1.09
40 | U43C U58A C62G | 0.22
41 | U43C U58C U60C | 0.18
42 | U43C U58G U67A U69C U76A U78C | 0.07
43 | U43C U60A C62G | 0.16
44 | U43C U60C A64U U78C | 0.05
45 | U43C U60C A77U | 0.09
46 | U43C U60C G70U | 0.1
47 | U43C U60C U72A | 0.39
48 | U43C U60C U78C U80C | 0.4

Row | Variant | self-cleavage
49 | U43C U66A U80A | 0.24
50 | U43C U66C U78C U80C | 0.09
51 | U43C U67A U72A U80C | 0.19
52 | U43C U67A U76A | 0.4
53 | U43C U67C U80A | 0.29
54 | U43C U69A U80A | 0.24
55 | U43C U72A U80C | 0.75
56 | U43C U72C U74A | 0.29
57 | U43C U72C U78A | 0.73
58 | U43C U74C A77C | 1.03
59 | U43C U74C U80A | 1.15
60 | U43G A45G U48C | 0.24
61 | U43G A45U A47U | 0.22
62 | U43G A45U U49C U51G U80C | 0.17
63 | U43G A56U A64G | 0.16
64 | U43G A57G U80C | 0.14
65 | U43G A65G U66A U67C G70A U80C | 0.26
66 | U43G C44U A65U U67C | 0.15
67 | U43G C44U U54A U60A | 0.13
68 | U43G C79U U80C | 0.14
69 | U43G U48A U69A | 0.22
70 | U43G U49C U80C | 0.45
71 | U43G U51C U74C | 0.41
72 | U43G U51C U78C | 0

Row | Variant | self-cleavage
73 | U43G U66C U69C | 0.19
74 | U43G U72A A75G | 0.17
75 | C44A A45G U58C U69C U78A | 0.14
76 | C44A A65G U72A | 0.07
77 | C44A A75U U80A | 0.79
78 | C44A U54C U74A | 0.72
79 | C44A U60C A65U | 0.31
80 | C44A U66C U74C | 0.38
81 | C44G A45U U80A | 0.28
82 | C44G A47G A65U | 0.09
83 | C44G U54C U78C | 0.33
84 | C44U A45G U51A | 0.61
85 | C44U A47G U58C | 0.28
86 | C44U A47G U66C | 0.25
87 | C44U A56G A57G | 0.16
88 | C44U A56G C62U U67A U80C | 0.09
89 | C44U A56U A65U U78C | 0.18
90 | C44U G53U U67C | 0.11
91 | C44U G53U U78C | 0.47
92 | C44U G55A A65G U69A | 0.07
93 | C44U U49A U80C | 0.09
94 | C44U U49C U74C | 0.16
95 | C44U U51A G55U C62A | 0.13
96 | C44U U58C U78C | 0.09

Row | Variant | self-cleavage
97 | C44U U60C U66A | 0.18
98 | C44U U69G U72C U78A | 0.11
99 | A45C A47U U54C | 0.11
100 | A45C A56U U74A | 0.06
101 | A45C A64G A77G | 0.09
102 | A45C A64U U72A | 0.11
103 | A45C A64U U74C | 0.24
104 | A45C G52U U80G | 0.85
105 | A45C U48C G52C U54A U78A | 0.4
106 | A45C U48C U66C U67C | 0.17
107 | A45C U48C U80C | 0.21
108 | A45C U49C U69A | 0.1
109 | A45C U51A U69A | 0.45
110 | A45C U54A U76C | 0.23
111 | A45C U54C U60C | 0.2
112 | A45C U58A G63U U69C | 0.08
113 | A45C U60C A64G U80C | 0.18
114 | A45C U66C U67C | 0.39
115 | A45C U67C U72C | 0.21
116 | A45C U69A U80C | 0.21
117 | A45C U69C U80A | 0.27
118 | A45C U72C U80A | 0.6
119 | A45G A47G A57G U69C A75G | 0.09
120 | A45G A47G A64G | 0.33

Row | Variant | self-cleavage
121 | A45G A47G A64G U74A | 0.58
122 | A45G A47G A65G | 0.41
123 | A45G A47G C59G U67C U80C | 0.12
124 | A45G A47G U48C U51C | 0.11
125 | A45G A47G U49A | 0.18
126 | A45G A47G U49C | 0.12
127 | A45G A47G U51A G63A | 0.28
128 | A45G A47G U51C | 0.53
129 | A45G A47G U51G | 0.28
130 | A45G A47G U54C U78C | 0.28
131 | A45G A47G U54G U76A | 0.54
132 | A45G A47G U76C | 0.54
133 | A45G A47U G52U | 0.24
134 | A45G A47U U49G | 0.09
135 | A45G A47U U67A | 0.2
136 | A45G A47U U69C | 0.37
137 | A45G A56C U76A | 0.55
138 | A45G A56G A57G U69C U80A | 0.1
139 | A45G A56G C71U | 0.53
140 | A45G A56G U66C | 0.23
141 | A45G A56G U69A A75G | 0.23
142 | A45G A56U G73A | 0.86
143 | A45G A57C A65G | 0.04
144 | A45G A57C U58C U69C | 0.24

Row | Variant | self-cleavage
145 | A45G A57G A64G U72C | 0.56
146 | A45G A57G C62A | 0.27
147 | A45G A57G U60C A77G | 0.94
148 | A45G A57G U60C U66G U74G | 0.77
149 | A45G A64G A65G U80C | 0.17
150 | A45G A64G A65U | 0.32
151 | A45G A64G A75G U80A | 0.36
152 | A45G A64G U66C | 0.47
153 | A45G A64G U69G U78C | 0.13
154 | A45G A64G U80C | 0.83
155 | A45G A65G U80A | 0.19
156 | A45G C50A U60A U67A | 0.12
157 | A45G C50U A64U U67A C79U | 0.14
158 | A45G C50U U69C | 0.22
159 | A45G C59U A64U | 0.22
160 | A45G C62G A65G | 0.24
161 | A45G C62U U72A C81U | 0.35
162 | A45G C62U U80C | 0.28
163 | A45G G46A U51G G63U U78C | 0.05
164 | A45G G46A U78C | 0.25
165 | A45G G46C U67A U69A | 0.05
166 | A45G G52A A56G | 0.85
167 | A45G G52A U67C U78A | 0.37
